Out of some 110,000 compounds screened, about 230 (0.21%) showed an effect of 50% or more. The list shows a part of the results.
target: DPAP1 (Plasmodium falciparum, UniProt Q8IIJ9); assay: primary screen, percent inhibition; read by cleavage of a fluorogenic dipeptide substrate; higher = more effect of the substance; set-up: species or system P. falciparum D10 trophozoite lysates; single well
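Further: 30 min substrate incubation versus DMSO and 10 µM JCP410 controls.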

DPAP1, sequence (Q8IIJ9 whole entry, looked up): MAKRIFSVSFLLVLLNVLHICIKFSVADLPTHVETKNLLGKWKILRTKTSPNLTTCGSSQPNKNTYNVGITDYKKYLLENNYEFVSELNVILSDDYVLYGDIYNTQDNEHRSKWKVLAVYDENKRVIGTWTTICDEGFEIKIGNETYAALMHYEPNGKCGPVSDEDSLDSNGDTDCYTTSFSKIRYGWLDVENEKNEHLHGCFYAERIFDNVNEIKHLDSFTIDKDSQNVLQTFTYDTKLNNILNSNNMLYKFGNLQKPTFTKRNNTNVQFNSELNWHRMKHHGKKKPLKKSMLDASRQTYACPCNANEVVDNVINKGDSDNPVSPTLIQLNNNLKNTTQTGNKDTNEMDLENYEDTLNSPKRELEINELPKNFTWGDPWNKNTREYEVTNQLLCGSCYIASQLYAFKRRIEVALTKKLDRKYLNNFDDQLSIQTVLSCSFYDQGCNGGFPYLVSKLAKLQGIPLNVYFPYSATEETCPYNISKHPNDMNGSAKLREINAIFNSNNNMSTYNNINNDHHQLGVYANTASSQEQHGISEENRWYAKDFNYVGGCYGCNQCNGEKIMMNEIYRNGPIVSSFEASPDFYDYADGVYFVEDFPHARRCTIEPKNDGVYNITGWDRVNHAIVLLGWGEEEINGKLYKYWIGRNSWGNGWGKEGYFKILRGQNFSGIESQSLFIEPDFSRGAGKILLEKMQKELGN

Compound | % Inhibition @ 10 uM
CNS(=O)(=O)c1ccc(NC(=O)c2cnn3c(C(F)F)cc(-c4ccc(C)cc4)nc23)cc1 | -5.71%
O=C(NC1CCS(=O)(=O)C1)c1ccco1 (stereo not drawn) | -1.56%
COc1ccc(N2CCN(Cc3ccc(OC)c(OC)c3)CC2)cc1 | 6.08%
CCC(C)c1ccc(NC(=O)c2c(Cl)cnn2CC)cc1 (stereo not drawn) | -4.76%
COCCNC(=O)C1CCCN(S(=O)(=O)N2CCC(C)CC2)C1 (stereo not drawn) | -0.546%
COc1ccc(OC)c(NC(=O)COc2ccc(C(C)C)cc2)c1 | 0.52%
CCC(CC)N1CCN(c2ccc3nc(C(=O)NCc4cccc(Cl)c4)ccc3n2)CC1 | -8.51%
COc1cc(CNCCO)cc(Br)c1OCc1ccccc1Cl | -6.43%
CC1=CC2=NC(=O)/C(=C\c3cc(C)n(-c4cccc(C(F)(F)F)c4)c3C)C(=N)N2O1 | -5.34%
CCN1CCN(Cc2c(NC(=O)c3ccccc3)sc(C)c2C)CC1 | 2.64%
Cc1ccc(-c2cn3c(n2)sc2cc(C(=O)NCc4cccnc4)ccc23)c(C)c1 | 1.64%
Cc1ccc2c(CNCC3CCCO3)c(C(=O)O)n(Cc3ccccc3F)c2c1 (stereo not drawn) | 1.76%
COc1ccc(OC)c(NC(=O)c2c(OC)cccc2OC)c1 | -3.44%
O=C(NC1CCCc2ccccc21)C(NS(=O)(=O)c1cccc2nsnc12)c1ccccc1 (stereo not drawn) | 3.63%
Cc1ccc(N2CCCn3c2nc2c3c(=O)[nH]c(=O)n2C)cc1 | 3.67%
COc1ccccc1NC(=O)C1=C(C)N=C2CC(C)(C)CC(O)=C2C1c1ccc2c(c1)OCO2 (stereo not drawn) | -0.25%
N#Cc1ccc(Oc2ccc(OCc3ccccc3)cc2)cc1C#N | -6.83%
CC1=C(c2ccc(C)c(C)c2)S(=O)(=O)N=C1NCCCc1ccccc1 | 2.27%
CCN(CC)c1nc(-c2cccnc2)nc2ccccc12 | 5.04%
Cc1cc(C)c2ncc(C(=O)O)c(O)c2c1 | -1.4%
Cc1cc(C)c2nc(N(C)C)cc(N)c2c1 | -4.96%

Compound | % Inhibition @ 10 uM
COCCNC(=O)c1cc2c(s1)CS(=O)(=O)C2 | -5.2%
CSc1ncc(C(=O)Nc2ncccc2C)c(-c2ccccc2)n1 | 1.6%
CS(=O)(=O)C1=NSC2=NC(=O)/C(=C\c3ccc(-c4ccccc4Cl)o3)C(=N)N21 | 1.85%
CCOc1ccc(N2C(=O)CC(N3CCCCCC3)C2=O)cc1 (stereo not drawn) | 3.17%
Cc1ccc(OCCCCCN2CCC(C)CC2)cc1 | 0.565%
COc1ccc(/C=C/c2sc(C)c(C)[n+]2C)cc1 | 2.1%
COc1ccc(NC(=O)CN(c2ccccc2F)S(C)(=O)=O)c(OC)c1 | -1.36%
Cc1cc(C(=O)CSc2nnc3ccccn23)c(C)n1-c1ccc(F)cc1 | 0.778%
CCn1cc(Cl)c(C(=O)Nc2ccc(Cn3cccn3)cc2)n1 | 3.05%
CC(CNC(=O)C1CCCN(c2nnc(-n3cccc3)s2)C1)c1ccccc1 (stereo not drawn) | 2.76%
N#CCNC(=O)[C@@H](NC(=O)OCc1ccccc1)C1CCCCC1 | -1.41%
CCCn1c2ccccc2n2c(C(=O)OCC)c(C)nc12 | 0.345%
OCC(C#CCN1CCOCC1)NCc1ccccc1 (stereo not drawn) | 1.7%
O=C(O)c1ccc2c(c1)C(=O)N(c1ccccc1C(=O)O)C2=O | 1.27%
CN(C)c1ccc(C2CC(c3ccc(Br)cc3)=NN2C(=O)CCC(=O)O)cc1 (stereo not drawn) | -0.941%
COc1ccc(C(=O)N2CCN(Cc3ccccc3)CC2)cc1OC | 12.5%
O=C(C1CCN(S(=O)(=O)N2CCC3(CC2)OCCO3)CC1)N1CCC(Cc2ccccc2)CC1 | -1.21%
Cc1ccc(CNC(=O)c2ccco2)cc1 | 0.749%
Cc1ccc(NC(=O)C2CC(=O)N=C(N3CCCCC3)N2)cc1Cl (stereo not drawn) | 2.13%
Cc1cc(C)n2c(N)c(-c3ccc(F)cc3)nc2c1 | 4.57%
CCOc1cc2c(cc1OCC)C1C(C(=O)N3CCCC3)c3ccccc3C(=O)N1CC2 (stereo not drawn) | -1.59%

Compound | % Inhibition @ 10 uM
N#C/C(=C\c1ccc(F)cc1)c1nc(-c2ccc(Cl)cc2)cs1 | -0.771%
CCOc1cc(C2C(C#N)=C(N)OC3=C2C(=O)CCC3)ccc1OC(F)F (stereo not drawn) | -2.68%
CC1=C(C(=O)OCCOc2ccccc2)C(c2ccccc2C(F)(F)F)CC(=O)N1 (stereo not drawn) | 0.8%
CCOc1ccc(-c2nc3s/c(=C\c4ccccc4OC)c(=O)n3n2)cc1 | 0.487%
COc1ccc(Cn2c(=O)n(Cc3ccccc3)c(=O)c3oc4ccccc4c32)cc1 | -1.39%
O=C(Cc1noc2ccccc12)N1CCC(Cc2ccccc2)CC1 | -5.37%
N#CCCC(=O)C(Cc1ccccc1Cl)NC(=O)OCc1ccccc1 (stereo not drawn) | 15.8%
CCC1C(=O)CC(c2ccccc2)NC1c1ccccc1 (stereo not drawn) | -5.94%
N#CCc1ccc(NC(=O)c2ccc(F)cc2)cc1 | 1.57%
Cc1ccc(C)c(Cn2c(C(=O)O)c(CNCCc3ccc(Cl)cc3)c3ccccc32)c1 | -3.21%
CC1=CC(C)C2(CO)COC(C(C)C)C1C2C (stereo not drawn) | -0.13%
CC1=C(c2ccc(C)c(C)c2)S(=O)(=O)N=C1NCC(=O)NCc1ccccc1Cl | -1.75%
O=C(Nc1cccc(Cl)c1)N(CCCN1CCOCC1)Cc1cccc2ccccc12 | 5.24%
COCCNC(=O)C1CC(c2ccc(OC)cc2)=NO1 (stereo not drawn) | 4.74%
Cc1ccc(C2=N/C(=C\C(Cl)=C\c3ccccc3)C(=O)O2)cc1 | 0.0855%
COc1ccc(CCNC(=O)Cc2c(C)c3cc4c(C)coc4c(C)c3oc2=O)cc1OC | 5.68%
CN(CC(=O)N1CCN(c2ccccc2F)CC1)S(=O)(=O)c1cc(Cl)ccc1Cl | -2.29%
CCOc1ccc(C2C(C#N)=C(N)N(c3ccc(OC)cc3)C3=C2C(=O)CCC3)cc1 (stereo not drawn) | 4.65%
O=C(c1ccco1)N1CCN(C(=O)C2CCCN(c3ncnc4c3nc3n4CCCCC3)C2)CC1 (stereo not drawn) | 3.05%
COc1ccc(S(=O)(=O)Nc2cccc(-c3cn4ccsc4n3)c2)cc1 | -2.24%
O=C(c1[nH]c2ccccc2c1Sc1ccc(Cl)cc1)N1CCOCC1 | 0.0811%

From publication PMC6919601, “Identification of Plasmodium dipeptidyl aminopeptidase allosteric inhibitors by high throughput screening” (PLoS ONE, 2019)
